Measured values: PubChem BioAssay AID463173 (ICCB-Longwood Screening Facility, Harvard Medical School, 2010)
The whole screen tested about 52,000 compounds, of which about 1,700 (3.3%) were called active. No stated cut-off is given here; in the data, active means survival mostly below about 52% (no sharp cut-off); inactive means mostly above about 56%. This is one part of the list.

System: Wild type
Test: growth inhibition of S. aureus wild type versus tarO mutant, primary screen, teichoic acid synthesis inhibitors, RN4220, OD600 (AID 463173)
Settings: S. aureus RN4220 wild type/DeltatarO growth, OD600, 18 h, hits give low values, screened at 18.75 µg/mL (by protocol)

| SMILES | survival |
| --- | --- |
| COc1cccc(C(=O)c2cn(CC(=O)NCc3ccccc3Cl)c3nc(C)ccc3c2=O)c1 | inactive: 94% |
| O=C(Nc1cccc(O)c1)c1noc2c1CCc1ccccc1-2 | inactive: 73% |
| CCc1ccc(-n2c(=O)c3sc4ccccc4c3n(CC(=O)N3CCCC3)c2=O)cc1 | inactive: 83% |
| O=C(CSc1nc2ccsc2c(=O)n1Cc1ccccc1Cl)NCc1ccc(F)cc1 | inactive: 58% |
| Cc1c(Cl)cccc1NC(=O)Cn1cc(C(=O)c2cccs2)c2ccccc21 | inactive: 136% |
| c1ccc2c(c1)Nc1nc3ccccc3nc1N2 | inactive: 95% |
| Cc1nc(-c2cccc(NC(=O)Nc3ccccc3C(F)(F)F)c2)no1 | inactive: 134% |
| CC(C)CN(CC(C)C)S(=O)(=O)c1ccc(C(=O)Nc2sc3c(c2C(N)=O)CC(C)(C)NC3(C)C)cc1 | inactive: 85% |
| O=C(Nc1c2c(nn1-c1ccc(Cl)cc1)CS(=O)(=O)C2)c1cccc(F)c1 | inactive: 66% |
| CCc1ccc(NC(=O)CCCc2nnc3n(CC(C)C)c(=O)c4sccc4n23)cc1 | inactive: 103% |
| CC(C)c1nn2c(=O)cc(COC(=O)c3ccccc3NC(=O)COc3ccccc3)nc2s1 | inactive: 70% |
| COC(=O)c1ccc(C2c3c(-c4ccccc4O)n[nH]c3C(=O)N2Cc2ccncc2)cc1 (centres undefined) | inactive: 88% |
| COc1ccc(-c2nc(CNS(=O)(=O)c3ccc(Br)cc3)cs2)cc1 | inactive: 88% |
| COc1cc(C(=O)N(CCc2ccccc2)C2CC3CCC(C2)N3C)cc(OC)c1OC (centres undefined) | inactive: 104% |
| CCC(=O)N1CCc2cc(OC)c(OC)cc2C1COc1ccccc1OC (centres undefined) | inactive: 91% |
| Cc1cccc(OCc2ccc(-c3nc(C#N)c(NCc4cccnc4)o3)o2)c1 | inactive: 102% |
| O=C(CSc1nc(-c2cccc(F)c2)[nH]c1-c1ccccc1)Nc1ccc2c(c1)OCCO2 | inactive: 118% |
| CC(=O)N1CCN(C2=NC(=O)C(=C3CCCCC3)S2)CC1 | inactive: 112% |
| CCOc1ccccc1NC(=O)c1c(NCc2cccs2)sc2c1CCC(C)C2 (centres undefined) | inactive: 119% |
| COC(=O)Nc1ccc(S(=O)(=O)N(CCO)CCO)cc1 | inactive: 99% |
| O=C(c1ccccc1)N(Cc1nc2ccccc2c(=O)[nH]1)C1CCCC1 | inactive: 117% |
| Cc1nnc(NC(=O)CSc2nccn2Cc2ccc(F)cc2)s1 | active: -2% |
| CC(=O)Nc1ccc(S(=O)(=O)NCCc2cn3ccsc3n2)cc1 | inactive: 72% |

| SMILES | survival |
| --- | --- |
| COc1cc(NC(=O)CSc2nc(-c3ccco3)cc(C(F)(F)F)n2)cc(OC)c1OC | inactive: 80% |
| CCc1cc(C(=O)NCc2ccccc2)no1 | inactive: 63% |
| Cc1nnc(NC(=O)c2nc(SCc3ccccc3F)ncc2Cl)s1 | inactive: 94% |
| COc1ccccc1NC(=O)CN1C(=O)C2(SCC(=O)N2c2ccc(F)c(F)c2)c2ccccc21 (centres undefined) | inactive: 72% |
| O=C(NCc1ccccc1)C(=O)Nc1ccc2nc3n(c(=O)c2c1)CCCCC3 | inactive: 94% |
| Cc1cc(C)nc(-n2nc(C)c3c2N(C)C(=O)CC3c2ccc(Cl)cc2)n1 (centres undefined) | inactive: 95% |
| Cc1c(C(=O)Nc2cccc(Cl)c2)oc2ccc(S(=O)(=O)N3CCCCCC3)cc12 | inactive: 66% |
| Cc1ccc(CN2COc3ccc4c(-c5ccccc5)cc(=O)oc4c3C2)cc1 | inactive: 80% |
| CC(=O)Nc1nc(SCc2ccccc2Cl)n[nH]1 | inactive: 109% |
| CCOC(=O)c1sc(NC(=O)CSc2nnc(Cn3nnc4ccccc43)n2C)nc1C | inactive: 104% |
| Cc1cc(-c2ccc(S(=O)(=O)Nc3ccccc3F)s2)on1 | inactive: 85% |
| COC(=O)C1=C(C)NC(C)=C(C(=O)OC)C1C1CC=CCC1 (centres undefined) | inactive: 109% |
| CC(NC(=O)Cc1ccc(NC(=O)N2CCSc3ncccc32)cc1)c1ccccc1 (centres undefined) | inactive: 83% |
| CCCOc1ccc(C(=O)Nc2ccc(NC(=O)c3ccccc3)c(Br)c2)cc1 | inactive: 136% |
| O=S(=O)(NCCc1ccccc1)c1ccc(S(=O)(=O)N2CCCCC2)cc1 | inactive: 96% |
| O=C(Nc1ccc2oc(=O)ccc2c1)c1cccs1 | inactive: 117% |
| Cc1ccc(C)c(NC(=O)Cn2c(=O)n(CC3CCCO3)c(=O)c3ccccc32)c1 (centres undefined) | inactive: 119% |
| CCN1CCN(c2ncnc3c2cnn3-c2ccc(C)c(C)c2)CC1 | inactive: 99% |
| CC(=O)Nc1ccc(NC(=O)CSc2nc3ccccc3nc2N2CCCCC2)cc1 | inactive: 90% |
| Cc1oc(CSCCSCc2cc(C(=O)O)c(C)o2)cc1C(=O)O | inactive: 97% |
| COc1ccc(C(=O)Nc2cc(C)c(O)c(-c3nc4ccccc4s3)c2)cc1OC | inactive: 80% |
| O=C(CN1C(=O)COc2ccc(S(=O)(=O)NC3CCCC3)cc21)Nc1ccc(Cl)cc1 | inactive: 68% |
| CCOC(=O)c1[nH]c(C)c(C(=O)NC(CC)Cc2ccccc2)c1C (centres undefined) | inactive: 84% |

| SMILES | survival |
| --- | --- |
| O=C(Nc1cccc(-c2cn3cccnc3n2)c1)c1cc(Br)ccc1Cl | inactive: 76% |
| Cc1ccc2c(c1)N(CC(=O)NCCc1ccc(Cl)cc1)C(=O)c1cccnc1O2 | inactive: 153% |
| Cn1c(-n2cccc2)c(-c2c(-c3ccccc3)[nH]c3c2c(=O)[nH]c(=O)n3C)c(=O)[nH]c1=O | inactive: 93% |
| COc1cccc(CNC(=O)c2ccc3c(c2)nc2n3CCOC2)c1 | inactive: 57% |
| Cc1ccc(-c2nnn3c2nc(NCC(C)c2ccccc2)c2ccccc23)cc1 (centres undefined) | inactive: 92% |
| CCOc1ccc(CNC(=O)c2ccc(CS(=O)Cc3ccc(Cl)cc3)o2)cc1 (centres undefined) | inactive: 79% |
| CCN(Cc1ccccc1)C(=O)CN1C(=O)COc2ccc(S(=O)(=O)NC3CCCC3)cc21 | inactive: 68% |
| CCOC(=O)CSc1nc2sc3c(c2c(=O)n1-c1ccccc1)CC(C(C)C)OC3 (centres undefined) | inactive: 108% |
| COc1cccc(CNCCSc2nnnn2C)c1OCc1ccccc1F | inactive: 70% |
| CCc1ccc2oc(C(=O)Nc3sc4c(c3C(=O)NC)CCCC4)cc(=O)c2c1 | inactive: 85% |
| CCOc1ccc(C(=O)Nc2cccc(OCc3cc(=O)n4cc(C)sc4n3)c2)cc1 | inactive: 80% |
| CCCCOC(=O)c1cccc(NC(=O)c2cc3ccccc3o2)c1 | active: 0% |
| O=C(Nc1ccc(Cl)cc1F)c1cc(S(=O)(=O)NCc2ccc3c(c2)OCO3)ccc1F | inactive: 90% |
| O=C(NCCc1ccccc1)c1ccc(CSc2nc3ccncc3n2Cc2ccc(F)cc2)cc1 | inactive: 85% |
| CCCCn1cc(S(=O)(=O)c2cccc(C)c2)c(=O)c2cc(F)c(N3CCOCC3)cc21 | inactive: 84% |
| CN(C)CCn1c2c(c(SCC(=O)Nc3ccc(F)cc3F)nc1=O)CCC2 | inactive: 83% |
| CCOC(=O)c1c(S(=O)(=O)N2CCCC(C(=O)N3CCN(c4ccccc4)CC3)C2)c(C)n(C)c1C (centres undefined) | inactive: 73% |
| Cc1ccccc1OC(=O)CSc1nnc(-c2cccs2)o1 | inactive: 85% |
| Cc1ccc(C)c(Cn2nc(-c3cc(C)ccc3C)ccc2=O)c1 | inactive: 76% |
| CC1(C)C=Cc2c(nc3ccccc3c2N)C1 | inactive: 114% |
| CC(C)(C)c1nc(CN2CCOCC2)cc(CN2CCOCC2)c1O | inactive: 103% |
| CCOC(=O)c1cc2c(=O)n3ccccc3nc2n(CC2CCCO2)c1=NC(=O)c1ccc(C)cc1 (centres undefined) | inactive: 118% |
| O=[N+]([O-])c1ccc(C(c2sc3nc(-c4ccco4)nn3c2O)N2CCN(c3cccc(Cl)c3)CC2)cc1 (centres undefined) | inactive: 60% |

| SMILES | survival |
| --- | --- |
| CCOc1ccc(S(=O)(=O)NCC(c2ccco2)S(=O)(=O)c2ccc(F)cc2)cc1 (centres undefined) | inactive: 90% |
| COc1cccc(N2CC(NC(=O)c3ccc(S(=O)(=O)N4CCCCC4)cc3)CC2=O)c1 (centres undefined) | inactive: 83% |
| COc1ccc(-c2nc3ccccc3o2)cc1NC(=O)COc1ccc(C(C)(C)C)cc1 | active: 2% |
| Cc1ccc(CN2C(=O)C3(c4ccccc42)N(c2cccc(C(F)(F)F)c2)C(=O)CS3(=O)=O)cc1 (centres undefined) | inactive: 68% |
| CCc1cccc(NC(=O)Cn2nc(-c3cc(C)ccc3C)ccc2=O)c1 | inactive: 63% |
| Cc1nnc(NCc2ccccc2)c2c1nnn2Cc1ccc(F)cc1 | inactive: 115% |
| COc1cc(NC(=O)c2cc3c(=O)n(Cc4cccs4)ccc3nc2C)cc(OC)c1OC | active: -2% |
| CC(Oc1ccccc1Cl)C(=O)N1CCN(CCc2ccccn2)CC1 (centres undefined) | inactive: 112% |
| CCOC(=O)CN1CCN(c2ccc(F)cc2)CC1 | inactive: 115% |
| O=c1cc(CSc2n[nH]c(-c3ccccc3)n2)[nH]c2ccccc12 | inactive: 152% |
| COc1ccccc1NC(=O)CSc1oc(-c2cccs2)nc1S(=O)(=O)c1ccccc1 | inactive: 67% |
| CC(Sc1nc(=O)cc(N)n1CCc1ccccc1)C(=O)Nc1ccccc1C#N (centres undefined) | inactive: 75% |
| O=C(CN1C(=O)COc2ccc(S(=O)(=O)N3CCOCC3)cc21)N1CCN(c2ccc(F)cc2)CC1 | inactive: 78% |
| COc1ccc(OC)c(NC(=O)CN2C(=O)CCc3cc(S(=O)(=O)N4CCCCC4)ccc32)c1 | active: 0% |
| O=C(NC1CCCCC1)c1ccc2c(c1)N(Cc1ccc(Cl)cc1)C(=O)c1ccccc1S2(=O)=O | inactive: 104% |
| CC(=O)N1c2c(cc(Br)cc2S(=O)(=O)N2CCN(c3cccc(Cl)c3)CC2)CC1C (centres undefined) | inactive: 75% |
| COc1cccc(N2CCN(C(=O)c3cnn(-c4ccc(C)cc4C)c3C3CCN(C(=O)OC(C)(C)C)CC3)CC2)c1 | inactive: 78% |
| Cc1ccc(-c2ccc(C#N)c(=O)n2CC(=O)N2CCC(C(N)=O)CC2)cc1 | inactive: 91% |
| CCOc1ccc(C(NC(=O)c2ccco2)c2ccc(OC)c(OC)c2)cc1 (centres undefined) | inactive: 106% |
| CC(=O)c1cccc(NS(=O)(=O)c2ccc3c(c2)NC(=O)CC(=O)N3)c1 | inactive: 96% |
